Among all 310,000 compounds or so, about 2,200 (0.71%) showed an effect of 50% or more. Effects have a minus sign here. The list shows a part of the results. Where a SMILES comes first, the peptide text is derived from it. The star is where a group is joined. Boc = CC(C)(C)OC(=O)*; OBn = c1ccc(CO*)cc1
The molecules below were run against human ether-à-go-go-related gene (hERG) potassium channel (human, UniProt Q12809) (assay: primary screen, population patch clamp on CHO cells stably expressing hERG).
human ether-à-go-go-related gene (hERG) potassium channel, sequence (Q12809 whole entry, looked up): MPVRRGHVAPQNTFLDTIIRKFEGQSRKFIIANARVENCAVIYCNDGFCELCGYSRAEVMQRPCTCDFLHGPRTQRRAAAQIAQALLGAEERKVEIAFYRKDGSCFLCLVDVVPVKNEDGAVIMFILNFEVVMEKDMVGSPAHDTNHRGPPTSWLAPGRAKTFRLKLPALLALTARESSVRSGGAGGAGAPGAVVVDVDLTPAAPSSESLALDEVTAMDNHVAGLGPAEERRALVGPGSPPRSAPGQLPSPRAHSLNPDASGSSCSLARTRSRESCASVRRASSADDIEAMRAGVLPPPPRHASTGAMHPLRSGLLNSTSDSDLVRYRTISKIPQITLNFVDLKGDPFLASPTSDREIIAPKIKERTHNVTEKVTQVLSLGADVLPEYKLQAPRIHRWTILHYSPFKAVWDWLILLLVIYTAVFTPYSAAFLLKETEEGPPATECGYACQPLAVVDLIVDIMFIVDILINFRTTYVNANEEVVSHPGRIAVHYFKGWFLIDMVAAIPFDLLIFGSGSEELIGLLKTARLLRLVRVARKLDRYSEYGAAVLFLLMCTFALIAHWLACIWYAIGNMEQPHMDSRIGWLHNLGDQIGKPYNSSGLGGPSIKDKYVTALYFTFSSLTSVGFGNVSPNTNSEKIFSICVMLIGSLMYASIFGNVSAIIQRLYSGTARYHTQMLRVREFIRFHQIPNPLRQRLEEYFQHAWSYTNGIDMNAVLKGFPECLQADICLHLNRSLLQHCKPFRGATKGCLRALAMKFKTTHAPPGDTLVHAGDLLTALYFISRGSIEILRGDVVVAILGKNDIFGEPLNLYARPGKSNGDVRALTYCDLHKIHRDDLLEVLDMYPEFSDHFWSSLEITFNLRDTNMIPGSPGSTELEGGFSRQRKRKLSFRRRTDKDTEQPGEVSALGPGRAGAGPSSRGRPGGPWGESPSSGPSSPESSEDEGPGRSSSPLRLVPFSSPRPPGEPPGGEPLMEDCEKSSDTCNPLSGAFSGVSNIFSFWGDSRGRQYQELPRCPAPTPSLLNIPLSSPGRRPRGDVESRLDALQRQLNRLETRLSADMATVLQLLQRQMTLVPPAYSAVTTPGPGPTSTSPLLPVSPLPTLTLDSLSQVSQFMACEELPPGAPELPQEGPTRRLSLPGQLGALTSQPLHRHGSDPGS
Experimental: Briefly, Chinese hamster ovary (CHO) cells stably expressing the hERG channel were dislodged from tissue culture flasks and dispensed into PPC plates. […] During the recording, background leak currents were estimated by a 100 ms step to -80 mV from an initial holding potential of -70 mV and subtracted from the subsequent current measurement. The campaign was conducted in two phases using slight differences in recording protocol. In the first phase, the initial voltage pulse used a 100 ms step to -30 mV from a holding potential of -70 mV, a 2 s conditioning step to +25 mV, and a 2 s test step to -30 mV. During the second phase of the screen, the potential during the conditioning step was raised to +45 mV. In both phases of the campaign, a secondary voltage pulse was applied using the same parameters as the second phase initial pulse. The initial and secondary pulses were applied in the absence of compound, and upon application of 1 μM and 10 μM test concentrations. Small molecule effects on hERG current density were quantified by […].

| SMILES | hERG current change (%, negative = inhibition) at 1uM [%] |
| --- | --- |
| COc1ccc(/C=N/n2c(-c3cccs3)n[nH]c2=S)cc1 | 7.35 |
| O=C(Nc1ccccc1F)c1cc2nc(C(F)F)cc(C(F)F)n2n1 | -1.73 |
| Cn1c(=O)[nH]c(=O)c2c1[nH]c(=S)n2Cc1ccccc1 | 15.1 |
| Cc1ccc(NC(=O)CSCC(=O)Nc2ccc(S(=O)(=O)N3CCCC3)cc2)cc1 | 5.24 |
| COc1ccc(N2C(=O)c3ccccc3NC23CCC(C)CC3)cc1 (stereo not drawn) | 8.03 |
| CC(Oc1ccc(Br)cc1)C(=O)Nc1ccc(S(=O)(=O)Nc2nccs2)cc1 (stereo not drawn) | 7.65 |
| Cc1cc(=O)[nH]c2cc(O)ccc12 | 1.33 |
| Cc1ccc(-n2c(-c3cccs3)nc3ccccc3c2=O)cc1 | 13.3 |
| O=C(O)C(=O)O.S=C(NCC1CCCO1)N1CCN(Cc2ccccc2)CC1 (stereo not drawn) | -7.77 |
| COc1ccc(NC(=O)N2CCc3ccccc32)cc1 | 5 |
| CN(C)C(=O)c1noc2cc([N+](=O)[O-])ccc12 | -5.1 |
| CCOC(=O)c1c(NC(=O)CC2SC(N)=NC2=O)sc(C)c1C (stereo not drawn) | 16.2 |
| CN(C)S(=O)(=O)N1CCN(C(=O)N2CCCCC2)CC1 | 2.59 |
| Cc1ccc(C(=O)C(O)C(c2ccc(C)cc2)N2CCCCC2)cc1 (stereo not drawn) | -4.55 |
| COCCN1C(=O)N[C@@H](CCc2ccccc2)[C@H](C(=O)OC)[C@H]1C | 18.2 |
| CSc1nc2c(c(=O)[nH]1)C(c1ccc(F)cc1)CC(=O)N2 (stereo not drawn) | 9.96 |
| CN(CC(=O)Nc1ccccc1Cl)C(=O)COC(=O)C1=COCCO1 | 2.66 |
| CSc1ccccc1NC(=O)CN(C)C(=O)c1ccc(-n2cccn2)cc1 | 6.41 |
| CC(=O)O[C@H]1C[C@@H]2CC[C@@H]3[C@H](CC[C@]4(C)C(=O)CC[C@@H]34)[C@@]2(C)C[C@@H]1OC(C)=O | 12.8 |
| CC(C)C1CC(c2csc(N)n2)CCO1 (stereo not drawn) | 14.9 |
| CCCC(=O)Nc1ccc(C(=O)/C=C/c2ccc(SC)cc2)cc1 | 20.6 |
| C/C(CCC1CC(C)OC1=O)=N/Nc1nc(-c2ccccc2)cs1 (stereo not drawn) | 14 |
| O=C(NC1CCCCC1)c1sc(=S)n2c1[nH]c(=O)c1ccccc12 | 15.8 |

| SMILES | hERG current change (%, negative = inhibition) at 1uM [%] |
| --- | --- |
| Cc1cc2c(cc(C(=O)NCCCN3CCOCC3)n2Cc2ccc(Cl)cc2)o1 | -7.25 |
| CCOc1ccc(N(CC(=O)NCC2CCCO2)S(=O)(=O)c2ccc(SC)cc2)cc1 (stereo not drawn) | -6.73 |
| O=C(NC1CCCCC1)n1c(=O)oc2ccccc21 | 6 |
| CC(=O)Nc1ccc(SCC(=O)Nc2ccccc2Oc2ccccc2)cc1 | 3.2 |
| CCOC(=O)C1CCN(c2c(NCc3ccc(N(C)C)cc3)c(=O)c2=O)CC1 | -1.04 |
| Cn1cc(C(=O)C(F)(F)F)c2ccccc21 | 7.78 |
| COc1ccccc1NC(=O)CSc1nnc(-c2ccoc2C)n1CC1CCCO1 (stereo not drawn) | 13.6 |
| COc1ccc(N2CCN(C(=O)c3cc(C4CC4)nn3-c3ccccc3)CC2)cc1 | 5.29 |
| Cc1c(C(=O)NC(C)c2ccc(-n3ccnc3)cc2)cccc1[N+](=O)[O-] (stereo not drawn) | -36 |
| COc1ccc(C(=O)NCCS(=O)(=O)N2CCN(C(=O)c3ccco3)CC2)cc1 | -0.137 |
| COc1ccc(C(=O)NCCS(=O)(=O)N2CCc3ccccc3C2)cc1 | 4.1 |
| CC(C)CNC(=O)C1CCN(S(=O)(=O)c2ccc3c(c2)OCCO3)CC1 | 8.36 |
| COc1cc(NC(=O)c2cnc(NCc3ccccc3)nc2C)cc(OC)c1OC | 11.3 |
| Cc1ccc(S(=O)(=O)Nc2ccc(NC(=O)c3c(F)c(F)c(F)c(F)c3F)cc2)cc1 | 1.72 |
| O=C(CN1CCN(S(=O)(=O)c2ccccc2)CC1)Nc1ccc(N2CCOCC2)cc1 | 10.8 |
| CC1C(=O)C(C)C(c2ccc(Cl)cc2)NC1c1ccc(Cl)cc1.Cl (stereo not drawn) | 16 |
| CCN1CCCC1CN(Cc1cc2cc(C)ccc2[nH]c1=O)C(=O)Nc1ccccc1OC (stereo not drawn) | -12 |
| CCCCc1c(C(=O)O)cc(OC)cc1C(=O)O | 12.7 |
| CC(C)(C)C(=O)O/N=C(\N)Cc1ccc(-c2csnn2)cc1 | 5.34 |
| Cc1cc(N2CC(C)OC(C)C2)n2cc(-c3ccccc3)nc2n1 (stereo not drawn) | -29.7 |
| CN(C)[C@@H]1CCC[C@H]1OC(=O)C(c1ccccc1)c1ccccc1 | -40.2 |
| Cc1cccc(NC(=O)CN2C(=O)NC3(CCCC3)C2=O)n1 | 4.59 |
| O=C(CNc1cccc2ccccc12)N/N=C/c1ccc(C(=O)O)cc1 | 8.61 |

| SMILES | hERG current change (%, negative = inhibition) at 1uM [%] |
| --- | --- |
| CC1(C)C(C=C(Cl)Cl)C1C(=O)N(Cc1ccc(Cl)cc1)C1CCS(=O)(=O)C1 (stereo not drawn) | -2.82 |
| O=c1[nH]c(N2CCCCCC2)nc2ncn(Cc3ccccc3)c12 | 6.1 |
| Br.CCCCn1c(=N)n(CC(=O)c2ccc(Br)s2)c2ccccc21 | 2.98 |
| Cc1cc(F)c(F)c(C(=O)N2CCC(C)CC2)c1Cl | 5.24 |
| COc1cccc(C(=O)N2N=C(c3ccccn3)CC2(O)C(F)(F)F)c1 (stereo not drawn) | 12.2 |
| COc1nc(N)nc(N)c1NS(=O)(=O)c1ccc(C)cc1 | 20.5 |
| Cc1ccc(C(=O)CSc2nnc(-c3ccncc3)n2C)cc1 | 12 |
| CCOc1ccc(C2(C#N)CC[N+](C)(C)CC2)cc1.[Br-] | 9.8 |
| C/C(=C\c1ccco1)C1Nc2cccc3cccc(c23)N1 | -4.32 |
| O=C(COc1ccccc1)Nc1ccc(N2CCN(C(=O)c3cccs3)CC2)cc1 | 11.5 |
| COc1ccc(NC(=S)NC23CC4CC(CC(C4)C2)C3)cc1OC | 10.8 |
| O=C(O)/C=C/C(=O)N(Cc1ccccc1)Cc1ccco1 | -0.159 |
| COCCn1c(=O)c2c(nc3n2CC(C)CN3CCc2ccccc2)n(C)c1=O (stereo not drawn) | -9.39 |
| O=C(Cc1c(O)c2ccccc2[nH]c1=O)N(Cc1ccccc1)Cc1ccccc1 | 2.34 |
| O=C(N=Nc1c(O)[nH]c2ccccc12)c1cc(-c2cccs2)[nH]n1 | 9.76 |
| COc1cccc(CNC(=O)c2ccc(Cl)c(NC3=NC4CS(=O)(=O)CC4S3)c2)c1 (stereo not drawn) | 3.44 |
| Cc1ccnc(N2CCCC(C(=O)Nc3nnc(C)s3)C2)n1 (stereo not drawn) | 9.23 |
| COc1ccc(CN(C)CC(=O)NCC(=O)Nc2c(C)cccc2C)cc1 | -3.33 |
| CCOc1cc2c(C#N)c(N3CCCCC3)nc(N)c2c(N)n1 | 2.45 |
| CCc1nn(C)c2c(=O)c(=O)c2n(C)[nH]1 | 10.7 |
| Cc1nnc2sc(SCc3ccc(Br)cc3)nn2c1=O | 12.6 |
| COc1ccccc1NC(=O)Cc1nn(C)c(=O)c2ccccc12 | 11.6 |
| O=C(CN1C(=O)NC2(CCCCC2)C1=O)Nc1ccc2[nH]c(=O)[nH]c2c1 | 13.5 |

| SMILES | hERG current change (%, negative = inhibition) at 1uM [%] |
| --- | --- |
| COc1ccc(Br)cc1CN(C)CC(=O)Nc1c(Cl)ccc(C)c1Cl | 8.74 |
| Cn1cnnc1SCC(=O)c1ccc(OC(F)F)cc1 | -14.5 |
| CN1CCCC(CC2c3ccccc3Sc3ccccc32)C1.Cl.O (stereo not drawn) | -7.15 |
| Cn1c(=O)n(C)c2cc(N3CCOCC3)c(NC(=O)c3cccc(Cl)c3)cc21 | 6.14 |
| Cc1cc(NC(=O)c2sccc2C)n(-c2cccc(Cl)c2)n1 | 7.25 |
| CCn1cc(/C=N/NC(=O)c2ccc3c(c2)OCO3)cn1 | -2.06 |
| Fc1ccc(CCNC(=S)Nc2ccc(F)c(Cl)c2)cc1 | 14.9 |
| C/C(CC1CC(COCC(C)C)OC1=O)=N\NC(N)=S (stereo not drawn) | 10.2 |
| CCOC(=O)c1cccc(NC(=O)CCS(=O)(=O)c2cccc3nsnc23)c1 | 6.07 |
| CC(=O)NC1C(=O)N(CCN2CCOCC2)c2ccc(C)cc21 (stereo not drawn) | 16 |
| CN1C(=O)C2(NC(=O)c3ccccc3N2C)c2ccccc21 (stereo not drawn) | 4.54 |
| COCCCN1C(=O)C(=O)/C(=C(/O)c2ccc(S(=O)(=O)N3CCOCC3)cc2)C1c1ccc(C)cc1 (stereo not drawn) | 12.7 |
| O=C(O)CCC(=O)Nc1ccc(Br)cc1C(=O)c1ccccc1 | 12.4 |
| C/C(=N\NC(=O)Cc1ccc(Br)cc1)c1cccnc1 | 12.6 |
| COCCCNC(=O)C1CCN(C(=O)c2oc3cc4sc(N(C)C)nc4cc3c2C)CC1 | -7.8 |
| CN1C(=O)OC2(C)CCc3ccccc3C12C (stereo not drawn) | 6.53 |
| CC(C)(C)OC(=O)NCC(=O)NCC(=O)OCc1ccccc1 (Boc-Gly-Gly-OBn) | 0.569 |
| COc1ccc(Cc2noc(CN(C)CC3(N4CCOCC4)CCCCC3)n2)cc1OC | 4.01 |
| CC1=C(C(=O)N2CCCC(N3CCN(c4cccc(C(F)(F)F)c4)CC3)C2)OCCO1 (stereo not drawn) | -7.71 |
| COc1ccc(C(=O)Nc2ccccc2N2CCOCC2)cc1S(=O)(=O)N1CCOCC1 | 0.225 |
| Cc1ccc(S(=O)(=O)N(C)C)cc1NC(=O)CSc1ncn[nH]1 | 6.23 |

— PMC4336329 (PLoS ONE, 2015)
